# Over roughly 110,000 compounds, “z-score” has its median near -0.1; the highest 2% begin near 2. The list shows a part of the results. Activity calls are given as the source filed them.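 Rule for the calls: active = z-score in the third read window above 3 or below -3; inactive = the rest.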
# Target: Metabotropic glutamate receptor 8 (Rattus norvegicus) (UniProt P70579)
# Experiment: rat mGluR8 modulators via GIRK flux, primary screen, cell-based, thallium flux, HTS (AID 488969)
# Details: HEK293 rat mGluR8, GIRK (G protein-gated inwardly rectifying potassium channel) thallium flux, FluoZin2; at 10 µM; stronger effect = higher value; submaximal glutamate (EC20) added with thallium
# UniProt P70579, sequence (P70579 whole entry, looked up): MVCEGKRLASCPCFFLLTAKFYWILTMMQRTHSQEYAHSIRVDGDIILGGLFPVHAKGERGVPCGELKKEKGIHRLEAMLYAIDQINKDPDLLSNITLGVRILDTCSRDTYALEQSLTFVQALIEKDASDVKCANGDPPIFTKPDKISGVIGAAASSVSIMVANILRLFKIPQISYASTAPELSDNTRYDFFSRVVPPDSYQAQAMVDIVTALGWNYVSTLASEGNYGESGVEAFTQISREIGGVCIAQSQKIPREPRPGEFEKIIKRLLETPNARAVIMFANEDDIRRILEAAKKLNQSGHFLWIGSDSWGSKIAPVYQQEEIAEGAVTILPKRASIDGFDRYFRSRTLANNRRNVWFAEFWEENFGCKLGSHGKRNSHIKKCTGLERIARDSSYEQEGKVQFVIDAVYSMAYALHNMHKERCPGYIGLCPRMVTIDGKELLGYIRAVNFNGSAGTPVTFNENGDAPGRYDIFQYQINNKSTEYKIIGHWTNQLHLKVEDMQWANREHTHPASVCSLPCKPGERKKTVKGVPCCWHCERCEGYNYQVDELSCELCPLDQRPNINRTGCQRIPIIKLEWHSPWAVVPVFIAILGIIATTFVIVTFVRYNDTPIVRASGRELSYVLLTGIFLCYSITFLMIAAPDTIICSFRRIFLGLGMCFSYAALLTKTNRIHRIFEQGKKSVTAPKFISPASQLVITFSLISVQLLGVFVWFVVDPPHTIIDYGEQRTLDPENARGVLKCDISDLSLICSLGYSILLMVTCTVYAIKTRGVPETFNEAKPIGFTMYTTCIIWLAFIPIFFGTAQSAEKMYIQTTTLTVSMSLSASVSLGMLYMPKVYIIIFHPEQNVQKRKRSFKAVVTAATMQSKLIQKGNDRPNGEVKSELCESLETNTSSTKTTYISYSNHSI
row,Structure (SMILES),z-score
1,Cc1ccc(NC(=O)NCCCN2CCOCC2)cc1,0.587
2,CC(C)CC1NC(=O)N(CC(=O)N2CCN(S(=O)(=O)c3ccc(Cl)cc3)CC2)C1=O (configuration not stated),0.0362
3,COc1cc(/C=N/NC(=O)c2ccc3ccccc3c2)ccc1Oc1ccc([N+](=O)[O-])cn1,-0.174
4,COc1ccc(CNC(=O)C2CCN(S(=O)(=O)c3c(C)n[nH]c3C)CC2)cc1,-0.115
5,Cn1c(Cl)cnc1C1CC(=O)c2cc(Cl)ccc2O1 (configuration not stated),-1.23
6,CCOC(=O)CCNC(=O)Nc1ccc2nc(C)n(Cc3ccccc3Cl)c(=O)c2c1,-0.545
7,Cc1cc(C)c2nc(SCC(=O)Nc3ccccc3N3CCOCC3)c(C#N)cc2c1,-0.337
8,O=c1[nH]c2sc3c(c2c2nncn12)CCCC3,-2.58
9,COc1cc(NC(=O)c2ccc(COCC(F)(F)F)o2)cc(OC)c1OC,2.1
10,CC1CC(C)CN(Cc2nc(N)nc(Nc3ccccc3)n2)C1 (configuration not stated),0.639
11,Cc1nc2ccc(S(=O)(=O)NC(C(=O)NC3CCCC3)C(C)C)cc2s1 (configuration not stated),-0.0248
12,COc1ccc(CN(C(=O)c2ccco2)c2ccccc2)cc1,-0.0646
13,COC(=O)c1ccccc1NC(=O)c1cccc(NC(=O)CSCc2ccccc2)c1C,-0.0727
14,CS(=O)(=O)N(CC(=O)N1CCN(c2ccccc2)CC1)Cc1ccc(Cl)cc1,0.514
15,CCOC(=O)c1cc2c(nc1NC(=S)NCc1ccccc1)CCCC2,2.16
16,Cc1nc2ccccc2n1CCc1nc2c3ccccc3nc(SCC(=O)NCc3ccco3)n2n1,-0.309
17,CCCCC(Nc1ncnc2ccccc12)C(=O)O (configuration not stated),0.328
18,C=Cn1cc[n+](CC(=O)C(C)(C)C)c1,-0.157
19,CC(=O)c1cccc(NC(=O)C2CCCC2)c1,0.949

row,Structure (SMILES),z-score
1,Cc1cccc(NC(=O)Cc2cccs2)n1,-0.58
2,Cc1cc(/C=N/NC(=O)Cn2c3ccccc3c(=O)c3ccccc32)c(C)n1-c1ccccc1,-0.369
3,CC(C)(C)Cc1nnc(NC(=O)c2ccc([N+](=O)[O-])cc2)s1,-0.0976
4,CCN(C(=O)c1c(-c2ccccc2)noc1C)c1ccccc1,1.03
5,Cc1ccc(N2C(=S)N=C(Nc3ccccc3C)C23CCOC(C)(C)C3)cc1 (configuration not stated),active: 15
6,COc1ccccc1/C=C(/C(=O)OCC(=O)Nc1ccc(N(C)C)cc1)c1ccccc1,1.94
7,O=C(Nc1nc2c(cc3c4c(cccc42)CC3)s1)c1ccccc1Cl,0.225
8,Cn1nc([N+](=O)[O-])nc1Oc1ccc(C(C)(C)C)cc1,-0.168
9,CCNC(=O)COc1cccc(C(=O)NCc2ccccc2)c1,-0.426
10,O=C(OC(C(=O)NCC1CCCO1)c1ccccn1)c1cccs1 (configuration not stated),-0.516
11,O=C(Nc1ccccc1)N1CCN(c2cccc(C(F)(F)F)c2)CC1,0.000131
12,O=C(C/C=N/OCc1ccc(F)cc1Cl)c1cnc(-c2ccccc2)s1,-0.246
13,COc1ccc(C(=O)N2CCN=C2SCc2cccnc2)c(OC)c1,-0.299
14,Oc1ccc(Nc2nc(-c3ccc4ccccc4c3)cs2)cc1,0.12
15,CCc1nnc(NC(=O)c2cccc(S(=O)(=O)N3CCc4ccccc43)c2)s1,0.645
16,CCCCOC(=O)c1c(C)oc2ccc(NS(=O)(=O)c3ccc4c5c(cccc35)C(=O)N4)cc12,-0.062
17,O=C(c1nsnc1-c1ccccc1O)N1CCCCC1,-0.155
18,CCCN(CC1CC1)C(=O)CSc1ncnc2sc(C)c(C)c12,-0.46
19,CCC(C)(C)C(=O)Nc1cc([N+](=O)[O-])ccc1F,-0.109

row,Structure (SMILES),z-score
1,Cc1ccc(-c2cc(-c3ccccc3)[nH]c(=S)c2C#N)cc1,active: 3.09
2,CN(CC(=O)Nc1ccc(S(=O)(=O)N2CCCC2)cc1)Cc1ccc(Cl)c(Cl)c1,-0.389
3,COc1cc2c(cc1NC(=O)c1cccnc1)CCCC2,-0.195
4,COc1ccc(OC)c(-n2c(-c3ccc(S(C)(=O)=O)cc3)cc(C=O)c2C)c1,-0.307
5,CCCn1nc([N+](=O)[O-])c(C(C#N)c2nc3ccccc3o2)c(Cl)c1=O (configuration not stated),-1.3
6,Cc1cc2n(n1)C(c1ccccc1)Nc1ccccc1-2 (configuration not stated),-0.241
7,CC(=O)OC[C@H]1O[C@@H](n2ccc(=O)[nH]c2=S)C(OC(C)=O)C1OC(C)=O (some centres not stated),0.0751
8,CCOC(=O)N1CCN(CC(O)COC2CC(C)CC(C)(C)C2)CC1 (configuration not stated),-0.675
9,Cn1nc(C(F)(F)F)c(C(=O)Nc2cccc(Cl)c2)c1Cl,-0.116
10,CCc1nc2c(c(SC)nn2-c2ccccc2)c(N)c1C(=O)OC,-0.0976
11,Cc1ccc(S(=O)(=O)NC2=NCN(CCc3ccccc3)CN2)cc1,0.208
12,Cc1cc(Cl)ccc1NC(=S)Nc1cccnc1,0.185
13,O=c1cc(N2CCc3ccccc3C2)[nH]c(=O)n1-c1ccccc1Cl,-0.119
14,Cc1ccc(C(=O)N2CCCC2)c(F)c1F,0.434
15,CCCCN(CC)CCCNC(=O)c1cc2c(=O)n(C)c3ccccc3c2n1C,2.54
16,O=C1c2cnccc2CN1Cc1ccccc1,0.167
17,COC(=O)c1ccc2ncccc2c1,0.221
18,CS(=O)(=O)Nc1ccccc1Oc1ccccc1,0.607
19,C=CCN(CC=C)S(=O)(=O)c1ccc(NC(=O)COc2ccccc2OC)cc1,-1.06

# From PubChem BioAssay AID488969 (Vanderbilt High Throughput Screening Facility, 2010)
